Results filed as inconclusive are left out. Not every entry of the source has a single result; some have several. Only these are listed. There may be further records. The records of an entry repeat one measurement across runs, samples, wells, individuals or studies.
Tested on: nude mice, LX-1 lung xenograft intrarenal, tumor weight T/C
Assay: NCI In Vivo Anticancer Drug Screen. Data for tumor model Human Lung LX-1 Xenograft (intrarenal inoculation) in NU/NU Swiss (nude) mice
Details: endpoint: mean tumor weight change, higher = larger tumour
Procedure: The antitumor activity of compounds was measured in mice bearing transplantable tumors. Survival or tumor size were measured and the results are expressed as the measurement made in the treated group (T) divided by the measurement made in the vehicle treated control group (C). The tumor model used in this assay is Human Lung LX-1 Xenograft (intrarenal inoculation) in NU/NU Swiss (nude) mice

[1] = dose: 100.0 mg/kg/injection, schedule: Q01DX010 (sc), vehicle: Klucel (hydroxypropylcellulose) (HPC)
[2] = dose: 8.0 mg/kg/injection, schedule: Q01DX010 (sc), vehicle: saline
[3] = dose: 16.0 mg/kg/injection, schedule: Q01DX010 (sc), vehicle: saline
[4] = dose: 32.0 mg/kg/injection, schedule: Q01DX010 (sc), vehicle: saline
[5] = dose: 100.0 mg/kg/injection, schedule: Q01DX010 (sc), vehicle: saline with Tween-80
[6] = dose: 2400.0 mg/kg/injection, schedule: Q04DX003 (sc), vehicle: saline

O=c1[nH]cc(F)c(=O)[nH]1
T/C (dose: 10.0 mg/kg/injection, schedule: Q01DX010 (sc), vehicle: saline): 64 % of control and 171 % of control

C=CCNc1ccc(C)cc1
T/C (dose: 50.0 mg/kg/injection, schedule: Q01DX010 (sc), vehicle: Klucel (hydroxypropylcellulose) (HPC)): 69 % of control and 105 % of control

CC1CN1P1(N2CC2C)=NP(N2CC2C)(N2CC2C)=NP(N2CC2C)(N2CC2C)=N1 (stereo unspecified)
T/C (dose: 25.0 mg/kg/injection, schedule: Q01DX010 (sc), vehicle: saline): 48 % of control, 64 % of control, 109 % of control

CN(C)N=Nc1ccc(S(N)(=O)=O)cc1
T/C (dose: 400.0 mg/kg/injection, schedule: Q01DX010 (sc), vehicle: Klucel (hydroxypropylcellulose) (HPC)): -38 % of control, 2 % of control, 4 % of control

Cc1ccc(S(=O)(=O)N/N=C/C(=O)O)cc1
T/C [1]: 38 % of control and 118 % of control

CC1=C(C)C(=O)O[C@@H]([C@](C)(O)[C@]2(O)CC[C@@]3(O)[C@@H]4C[C@H]5O[C@]56[C@@H](O)C=CC(=O)[C@]6(C)[C@H]4CC[C@]23C)C1
T/C [2]: 77 % of control and 110 % of control
T/C [3]: 81 % of control, 83 % of control, 114 % of control
T/C [4]: 60 % of control, 86 % of control, 114 % of control

O=NN(CCCl)C(=O)NCCO
T/C (dose: 6.25 mg/kg/injection, schedule: Q04DX003 (sc), vehicle: water): 37 % of control and 159 % of control
T/C (dose: 12.5 mg/kg/injection, schedule: Q04DX003 (sc), vehicle: water): 3 % of control and 56 % of control
T/C (dose: 25.0 mg/kg/injection, schedule: Q04DX003 (sc), vehicle: water): -53 % of control and 31 % of control

COc1cccc2c1C(=O)c1c(O)c3c(c(O)c1C2=O)C[C@@](O)(/C(C)=N/NC(=O)c1ccccc1)C[C@@H]3OC1CC(N)C(O)C(C)O1 (stereo partly specified)
T/C (dose: 5.0 mg/kg/injection, schedule: Q04DX003 (sc), vehicle: water): 46 % of control and 82 % of control

CC(=O)[O][Pb]([O]C(C)=O)([c]1ccccc1)[c]1ccccc1
T/C (dose: 200.0 mg/kg/injection, schedule: Q01DX010 (sc), vehicle: Klucel (hydroxypropylcellulose) (HPC)): 39 % of control and 78 % of control
T/C (dose: 800.0 mg/kg/injection, schedule: Q01DX010 (sc), vehicle: Klucel (hydroxypropylcellulose) (HPC)): 42 % of control and 97 % of control

COc1cc2cc(c1Cl)N(C)C(=O)CC(OC(=O)C(C)C)C1(C)OC1C(C)C1CC(O)(NC(=O)O1)C(OC)/C=C/C=C(C)C2 (stereo unspecified)
T/C (dose: 25.0 micrograms/kg/injection, schedule: Q01DX010 (sc), vehicle: saline + alcohol): 79 % of control and 121 % of control
T/C (dose: 50.0 micrograms/kg/injection, schedule: Q01DX010 (sc), vehicle: saline + alcohol): 25 % of control, 53 % of control, 104 % of control

[N-]=[N+]=CC(=O)CCC(N)C(=O)O (stereo unspecified)
T/C (dose: 0.1 mg/kg/injection, schedule: Q01DX010 (sc), vehicle: saline): 28 % of control and 76 % of control
T/C (dose: 0.2 mg/kg/injection, schedule: Q01DX010 (sc), vehicle: saline): 39 % of control and 65 % of control

COc1ccc2nc3cc(Cl)ccc3c(NCCNCCNCCNc3c4ccc(Cl)cc4nc4ccc(OC)cc34)c2c1
T/C [5]: 78 % of control and 115 % of control

COC12C(COC(N)=O)C3=C(C(=O)C(C)=C(N)C3=O)N1CC1C2N1C (stereo unspecified)
T/C (dose: 4.0 mg/kg/injection, schedule: Q01DX010 (sc), vehicle: saline): 17 % of control and 43 % of control

CCCNC1=C(C)C(=O)C2=C(C1=O)[C@H](COC(N)=O)[C@]1(OC)[C@@H]3N[C@@H]3CN21
T/C (dose: 6.0 mg/kg/injection, schedule: Q04DX003 (sc), vehicle: suspension in saline): 43 % of control and 70 % of control
T/C (dose: 12.0 mg/kg/injection, schedule: Q04DX003 (sc), vehicle: suspension in saline): 23 % of control, 30 % of control, 97 % of control

O=C(N/N=C\c1cc(Br)cc(Br)c1O)N/N=C/c1cc(Br)cc(Br)c1O
T/C [5]: 85 % of control and 257 % of control
T/C (dose: 200.0 mg/kg/injection, schedule: Q01DX010 (sc), vehicle: saline with Tween-80): 56 % of control and 158 % of control
T/C (dose: 400.0 mg/kg/injection, schedule: Q01DX010 (sc), vehicle: saline with Tween-80): 49 % of control and 373 % of control

CC(=O)OCc1cc(=O)n(C)c2c3c4c(cc12)c(C)cc(=O)n4CO3
T/C [1]: 25 % of control and 84 % of control

O=NN(CCCl)C(=O)NC1CCCCC1
T/C (dose: 16.0 mg/kg/injection, schedule: Q04DX003 (sc), vehicle: carboxymethylcellulose (CMC)): 64 % of control and 109 % of control
T/C (dose: 25.0 mg/kg/injection, schedule: Q04DX003 (sc), vehicle: Klucel (hydroxypropylcellulose) (HPC)): 16 % of control and 57 % of control
T/C (dose: 100.0 mg/kg/injection, schedule: Q04DX003 (sc), vehicle: Klucel (hydroxypropylcellulose) (HPC)): -100 % of control and 63 % of control

c1ccc2c(NCCCCCCNc3c4ccccc4nc4ccccc34)c3ccccc3nc2c1
T/C (dose: 10.0 mg/kg/injection, schedule: Q01DX010 (sc), vehicle: Klucel (hydroxypropylcellulose) (HPC)): 56 % of control and 104 % of control
T/C (dose: 20.0 mg/kg/injection, schedule: Q01DX010 (sc), vehicle: Klucel (hydroxypropylcellulose) (HPC)): 37 % of control and 150 % of control

OCCOCC(F)(F)F
T/C (dose: 1200.0 mg/kg/injection, schedule: Q04DX003 (sc), vehicle: saline): 83 % of control, 90 % of control, 111 % of control
T/C [6]: 4 % of control, 50 % of control, 101 % of control

CC[C@@]1(O)C(=O)OCc2c1cc1n(c2=O)Cc2cc3cc(O)ccc3nc2-1
T/C (dose: 16.0 mg/kg/injection, schedule: Q04DX003 (sc), vehicle: suspension in saline): -98 % of control and 18 % of control
T/C (dose: 64.0 mg/kg/injection, schedule: Q04DX003 (sc), vehicle: suspension in saline): -97 % of control, 1 % of control, 4 % of control
T/C (dose: 128.0 mg/kg/injection, schedule: Q04DX003 (sc), vehicle: suspension in saline): -99 % of control, -52 % of control, 5 % of control

CCCCNCCCNCCCNC(=O)c1csc(-c2csc(CCNC(=O)C(NC(=O)C(C)C(O)C(C)NC(=O)C(NC(=O)c3nc(C(CC(N)=O)NCC(N)C(N)=O)nc(N)c3C)C(OC3OC(CO)C(O)C(O)C3OC3OC(CO)C(O)C(OC(N)=O)C3O)c3cnc[nH]3)C(C)O)n2)n1 (stereo unspecified)
T/C [2]: 31 % of control, 45 % of control, 65 % of control
T/C [3]: 14 % of control, 40 % of control, 45 % of control
T/C [4]: 18 % of control, 28 % of control, 45 % of control
T/C (dose: 64.0 mg/kg/injection, schedule: Q01DX010 (sc), vehicle: saline): 9 % of control and 37 % of control

O=CC(NC(=O)N(CCCl)N=O)C(O)C(O)C(O)CO (stereo unspecified)
T/C (dose: 3.0 mg/kg/injection, schedule: Q01DX010 (sc), vehicle: Klucel (hydroxypropylcellulose) (HPC)): 21 % of control and 77 % of control

O=C1NC2(CCCCC2)C(=O)N1CCN(CCCl)CCCl
T/C (dose: 12.0 mg/kg/injection, schedule: Q01DX010 (sc), vehicle: suspension in saline): 55 % of control and 252 % of control
T/C (dose: 24.0 mg/kg/injection, schedule: Q01DX010 (sc), vehicle: suspension in saline): 18 % of control and 81 % of control
T/C (dose: 48.0 mg/kg/injection, schedule: Q01DX010 (sc), vehicle: suspension in saline): 28 % of control and 61 % of control

C[C@H](N)C(=O)N[C@@H]1[C@H]2C(=C(O)C[C@@H](O)[C@@H]2O)C(=O)O[C@@H]1C
T/C [6]: 72 % of control and 111 % of control

S=C=NCCc1ccccc1
T/C (dose: 25.0 mg/kg/injection, schedule: Q01DX010 (sc), vehicle: saline with Tween-80): 39 % of control, 73 % of control, 83 % of control
T/C (dose: 50.0 mg/kg/injection, schedule: Q01DX010 (sc), vehicle: saline with Tween-80): 26 % of control, 99 % of control, 110 % of control
T/C [5]: 5 % of control, 59 % of control, 103 % of control

CCC1=C[C@H]2CN(CCc3c([nH]c4ccccc34)[C@@](C(=O)OC)(c3cc4c(cc3OC)N(C)[C@H]3[C@@](O)(C(=O)NC)[C@H](OC(C)=O)[C@]5(CC)C=CCN6CC[C@]43[C@@H]65)C2)C1
T/C (dose: 2.0 mg/kg/injection, schedule: Q04DX003 (sc), vehicle: water): 10 % of control and 45 % of control

CC12CCC3C(CCC4CC(OC(=O)Cc5ccc(N(CCCl)CCCl)cc5)CCC43C)C1CCC(=O)N2 (stereo unspecified)
T/C (dose: 50.0 mg/kg/injection, schedule: Q04DX003 (sc), vehicle: saline with Tween-80): 36 % of control and 87 % of control
T/C (dose: 100.0 mg/kg/injection, schedule: Q04DX003 (sc), vehicle: saline with Tween-80): 37 % of control and 84 % of control

Reference: PubChem BioAssay AID264 (DTP/NCI, 2004)
